The values that follow come from US4795826A, “Ortho-phenylenediamine compounds” (priority 1986, dated 1989).

The first test deals with Lewis lung carcinoma. In words: Lewis lung carcinoma in vivo (increase in lifespan of mice, i.v. tumour). Conditions: days 1, 5 and 9 after tumor inoculation, in 0.1 ml of 30% v/v ethyl alcohol in water, as soluble acid addition salt.
As for `CNc1cc(NS(C)(=O)=O)ccc1Nc1c2ccccc2nc2c(C)cccc12` [Compound 12], the “OD (optimal drug dose)” value amounted to 13.3 milligrams per kilogram.

In a further test the test system is P388 leukemia. In words: P388 leukemia in vivo (increase in lifespan of mice, i.p. tumour). Conditions: days 1, 5 and 9 after tumor inoculation, in 0.1 ml of 30% v/v ethyl alcohol in water, as soluble acid addition salt.
On to `CNc1cc(NS(C)(=O)=O)ccc1Nc1c2ccc(Br)cc2nc2c(C)cccc12` [Compound 21], for which the “OD (optimal drug dose)” value worked out at 13.3 milligrams per kilogram. With `CNc1cc(NS(C)(=O)=O)ccc1Nc1c2ccccc2nc2cc(NC(=O)OC)ccc12` [Compound 11], the “OD (optimal drug dose)” value amounted to 13.3 milligrams per kilogram. For `CNc1cc(NS(C)(=O)=O)ccc1Nc1c2ccc(Cl)cc2nc2c(C)cccc12` [Compound 19], the “OD (optimal drug dose)” value was determined as 13.3 milligrams per kilogram.

In the case of `CNc1cc(NC(=O)OC)ccc1Nc1c2ccccc2nc2c(C)cccc12` [Compound 58], the “OD (optimal drug dose)” value was 13.3 milligrams per kilogram.

With `CNc1cc(NS(C)(=O)=O)ccc1Nc1c2ccccc2nc2c(C)cccc12` [Compound 12], the “OD (optimal drug dose)” value came out at 13.3 milligrams per kilogram. For the molecule `CNC(=O)c1cccc2c(Nc3ccc(NS(C)(=O)=O)cc3NC)c3cccc(C)c3nc12` [Compound 24], the “OD (optimal drug dose)” value is 13.3 milligrams per kilogram. In the case of `CNc1cc(NS(C)(=O)=O)ccc1Nc1c2ccc(C)cc2nc2c(OC)cccc12` [Compound 22], the “OD (optimal drug dose)” value amounted to 13.3 milligrams per kilogram.
